# The supplement of paper PMC12645437, “Orthogonal IMiD-Degron Pairs Induce Selective Protein Degradation in Cells” (ACS Chemical Biology, 2025)
# Some of the results follow.
# Target: no compound (DMSO)
# Assay: log2 fold change of degron read counts, EGFP-low vs EGFP+ sorted cells; higher = lower degron-EGFP level without compound (poor expression or instability)
# Settings: compound: DMSO control; 18 h
# 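Also: jurkat cells carrying a lentiviral library of mutant zinc finger degrons fused to EGFP plus mCherry, mCherry+ cells FACS sorted, degron abundance counted by next-generation sequencing.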
row,Sequence,log2 fold change of degron read counts
1,FECDICGALFTQKGNLLRHIKL,-1.71
2,LSCEICGFACTQKGNLLRHIKL,-0.979
3,FGCNVCGANFTQKGNLLRHIKL,-0.636
4,FQCEICGASFTQKGNLLRHIKL,-1.56
5,LECNQCGFECTQKGNLLRHIKL,-0.644
6,FVCPICGALFTQKGNLLRHIKL,0.604
7,FMCNQCGARFTQKGNLLRHIKL,0.567
8,FSCNQCGHRFTQKGNLLRHIKL,-0.0277
9,FVCEICGHDFTQKGNLLRHIKL,-1.71
10,FHCEICGALFTQKGNLLRHIKL,-1.44
11,FFCNQCGHHFTQKGNLLRHIKL,0.643
12,FMCDVCGACFTQKGNLLRHIKL,-1.96
13,FKCPICGAYFTQKGNLLRHIKL,0.188
14,FMCEQCGASFTQKGNLLRHIKL,-1.03
15,FTCDICGALFTQKGNLLRHIKL,-1.26
16,LWCNQCGFFCTQKGNLLRHIKL,2.93
17,FLCSVCGHQFTQKGNLLRHIKL,-0.882
18,FSCSVCGHQFTQKGNLLRHIKL,-0.64
19,FACNICGAYFTQKGNLLRHIKL,0.461
20,FNCNQCGHNFTQKGNLLRHIKL,0.486
21,FICPVCGAMFTQKGNLLRHIKL,0.449
22,FSCDQCGACFTQKGNLLRHIKL,-1.96
23,FYCEQCGAMFTQKGNLLRHIKL,-1.25
24,FVCEICGHKFTQKGNLLRHIKL,-1.34
25,LMCNQCGFMCTQKGNLLRHIKL,0.815

row,Sequence,log2 fold change of degron read counts
1,LQCEICGFRCTQKGNLLRHIKL,-0.585
2,FVCPICGHCFTQKGNLLRHIKL,0.125
3,FECNQCGAMFTQKGNLLRHIKL,-0.0642
4,FRCDICGAKFTQKGNLLRHIKL,-1.06
5,LKCNQCGFTCTQKGNLLRHIKL,-0.426
6,FVCDICGAVFTQKGNLLRHIKL,0.00773
7,FYCEVCGAWFTQKGNLLRHIKL,-0.0906
8,FMCPICGADFTQKGNLLRHIKL,-0.745
9,FWCPICGRLFTQKGNLLRHIKL,0.524
10,FTCEICGHTFTQKGNLLRHIKL,-2.64
11,FWCNICGAYFTQKGNLLRHIKL,1.61
12,FECNVCGAFFTQKGNLLRHIKL,-1.25
13,FSCPQCGAAFTQKGNLLRHIKL,-0.685
14,FTCDQCGAHFTQKGNLLRHIKL,-2.18
15,FKCNQCGRRFTQKGNLLRHIKL,-0.826
16,FHCEQCGALFTQKGNLLRHIKL,-1.26
17,FKCEQCGALFTQKGNLLRHIKL,-1.5
18,FHCPICGRVFTQKGNLLRHIKL,-0.993
19,FFCNQCGAIFTQKGNLLRHIKL,1.23
20,FKCEICGRHFTQKGNLLRHIKL,-1.17
21,FRCNQCGAHFTQKGNLLRHIKL,-0.239
22,FLCEVCGAMFTQKGNLLRHIKL,-1.2
23,LFCNQCGFDCTQKGNLLRHIKL,0.274
24,LCCPICGFDCTQKGNLLRHIKL,0.917
25,FGCNQCGRSFTQKGNLLRHIKL,-0.0785
